The record followed here is the supplement of paper PMC10369915.

The other results are listed elsewhere or left out. Rule as the data show it: active = 3.2 or more and inactive = the rest. Only a few entries rise above the background.
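Also: displayed peptides selected on beads carrying the immobilized SH2 domain, with library peptides lacking any tyrosine serving as negative controls.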

For one assay, the target named is SHP2 C-SH2 domain E139D. The assay is described as follows: enrichment score (SH2-bound / input frequency) (ratio); bacterial display of known human phosphotyrosine sites (pTyr-Var adds point mutants) read by sequencing; higher = stronger binding; tyrosines were phosphorylated by kinases first. The following applies: peptide library: pTyr-Var.
As to HLVSEYQQYQD [TUBB3_Y422_D417H], the enrichment score was inactive: 1.14.
Turning to SGPRRYTIATL [TTR_Y125_A129T], the enrichment score is inactive: 0.435.
For the molecule TNLVPYPCIHF [TUBA1A_Y262_R264C], the enrichment score was inactive: 1.38.
In the case of EYGFRYELVQY [UGGT2_Y1289], the enrichment score is inactive: 0.911.
As to DLNATYRTIQG [U2SURP_Y634], the enrichment score was inactive: 0.802.
In the case of ADLTEYLSTHF [UQCRC1_Y219_YF], the enrichment score is inactive: 1.04.
As to EKGEEYGGGGG [TUBA1A_Y451_E447K], the enrichment score is inactive: 0.341.
As for GRDQPYSGAGD [TYRO3_Y828], the enrichment score is inactive: 0.499.
On to DDDPEYRKFLE [UPF3B_Y160], for which the enrichment score is inactive: 0.488.
Turning to KMMGRYEMYAR [UPB1_Y362_T359M], the enrichment score was inactive: 0.898.
Consider TVLWRYTGTRP [UGT1A1_Y337], for which the enrichment score is inactive: 0.291.
Regarding QGIYGYHHHMQ [UFSP2_Y287_Y290H], the enrichment score was inactive: 2.41.
Take IRNRDYDDIDD [TTYH2_Y424_T419I]: the enrichment score is inactive: 0.357.
In the case of HAVYIYDICHV [TWNK_Y508_V507I], the enrichment score was inactive: 2.87.
Turning to HLVSEYQQFQD [TUBB3_Y422_D417H_YF], the enrichment score is inactive: 0.869.
Consider REIHDYIKHLG [UNC13C_Y308_D304E], for which the enrichment score was inactive: 1.35.
Take YEDTLYTVLHR [UNC13D_Y61_A59T]: the enrichment score was inactive: 1.08.
TQRPHYKGGGG [TYROBP_Y112_Y111H]: the enrichment score was inactive: 1.26.
Take FKDVTYLTEEK [UBE3A_Y127]: the enrichment score was inactive: 1.01.

The target in the next assay is SHP2 C-SH2 domain wild-type. The assay is described as above. The following applies: peptide library: pTyr-Var.
For the molecule HLVSEYQQYQD [TUBB3_Y422_D417H], the enrichment score was inactive: 1.22.
On the same count and under the same terms, next, SGPRRYTIATL [TTR_Y125_A129T]: inactive: 0.544.
On the same count and under the same terms, next, TNLVPYPCIHF [TUBA1A_Y262_R264C]: inactive: 1.45.
On to EYGFRYELVQY [UGGT2_Y1289], for which the enrichment score was inactive: 1.18.
On to DLNATYRTIQG [U2SURP_Y634], for which the enrichment score was inactive: 1.15.
ADLTEYLSTHF [UQCRC1_Y219_YF]: the enrichment score is inactive: 0.982.
As to EKGEEYGGGGG [TUBA1A_Y451_E447K], the enrichment score is inactive: 0.433.
With GRDQPYSGAGD [TYRO3_Y828], the enrichment score was inactive: 0.516.
As for DDDPEYRKFLE [UPF3B_Y160], the enrichment score was inactive: 0.39.
Regarding KMMGRYEMYAR [UPB1_Y362_T359M], the enrichment score was inactive: 1.09.
On to TVLWRYTGTRP [UGT1A1_Y337], for which the enrichment score is inactive: 0.316.
Regarding QGIYGYHHHMQ [UFSP2_Y287_Y290H], the enrichment score is inactive: 2.54.
For IRNRDYDDIDD [TTYH2_Y424_T419I], the enrichment score was inactive: 0.4.
With HAVYIYDICHV [TWNK_Y508_V507I], the enrichment score was active: 4.02.
HLVSEYQQFQD [TUBB3_Y422_D417H_YF]: the enrichment score is inactive: 0.754.
The same measure, in the same setting: next, REIHDYIKHLG [UNC13C_Y308_D304E]: inactive: 0.992; YEDTLYTVLHR [UNC13D_Y61_A59T]: inactive: 1.27; TQRPHYKGGGG [TYROBP_Y112_Y111H]: inactive: 1.23.
As for FKDVTYLTEEK [UBE3A_Y127], the enrichment score was inactive: 0.759.

Another assay has as its target SHP2 N-SH2 domain L43F. Described as above. The following applies: peptide library: pTyr-Var.
As to HLVSEYQQYQD [TUBB3_Y422_D417H], the enrichment score was inactive: 0.742.
As for SGPRRYTIATL [TTR_Y125_A129T], the enrichment score was inactive: 0.482.
Regarding TNLVPYPCIHF [TUBA1A_Y262_R264C], the enrichment score is inactive: 1.41.
Turning to EYGFRYELVQY [UGGT2_Y1289], the enrichment score was inactive: 0.932.
As for DLNATYRTIQG [U2SURP_Y634], the enrichment score was inactive: 0.834.
Take ADLTEYLSTHF [UQCRC1_Y219_YF]: the enrichment score is inactive: 0.95.
For the molecule EKGEEYGGGGG [TUBA1A_Y451_E447K], the enrichment score is inactive: 0.431.
On to GRDQPYSGAGD [TYRO3_Y828], for which the enrichment score was inactive: 0.494.
On to DDDPEYRKFLE [UPF3B_Y160], for which the enrichment score is inactive: 0.415.
Consider KMMGRYEMYAR [UPB1_Y362_T359M], for which the enrichment score is inactive: 0.868.
On to TVLWRYTGTRP [UGT1A1_Y337], for which the enrichment score was inactive: 0.189.
As for QGIYGYHHHMQ [UFSP2_Y287_Y290H], the enrichment score was inactive: 2.69.
Turning to IRNRDYDDIDD [TTYH2_Y424_T419I], the enrichment score was inactive: 0.327.
As to HAVYIYDICHV [TWNK_Y508_V507I], the enrichment score was active: 3.37.
In the case of HLVSEYQQFQD [TUBB3_Y422_D417H_YF], the enrichment score is inactive: 0.952.
Regarding REIHDYIKHLG [UNC13C_Y308_D304E], the enrichment score was inactive: 1.08.
In the case of YEDTLYTVLHR [UNC13D_Y61_A59T], the enrichment score is inactive: 1.19.
As for TQRPHYKGGGG [TYROBP_Y112_Y111H], the enrichment score was inactive: 1.11.
FKDVTYLTEEK [UBE3A_Y127]: the enrichment score is inactive: 0.777.

A further assay deals with SHP2 N-SH2 domain T42A. The assay is described as above. The following applies: peptide library: pTyr-Var.
As for HLVSEYQQYQD [TUBB3_Y422_D417H], the enrichment score was inactive: 0.915.
As for SGPRRYTIATL [TTR_Y125_A129T], the enrichment score is inactive: 0.441.
Take TNLVPYPCIHF [TUBA1A_Y262_R264C]: the enrichment score is inactive: 1.36.
Turning to EYGFRYELVQY [UGGT2_Y1289], the enrichment score is inactive: 0.903.
For the molecule DLNATYRTIQG [U2SURP_Y634], the enrichment score was inactive: 0.594.
Consider ADLTEYLSTHF [UQCRC1_Y219_YF], for which the enrichment score is inactive: 0.924.
For the molecule EKGEEYGGGGG [TUBA1A_Y451_E447K], the enrichment score was inactive: 0.363.
The same measure, in the same setting: the figure for GRDQPYSGAGD [TYRO3_Y828] is inactive: 0.365; for DDDPEYRKFLE [UPF3B_Y160] it is inactive: 0.325; for KMMGRYEMYAR [UPB1_Y362_T359M] it is inactive: 0.82.
Same read-out and setting: the figure for TVLWRYTGTRP [UGT1A1_Y337] is inactive: 0.265; for QGIYGYHHHMQ [UFSP2_Y287_Y290H] it is inactive: 2.42; for IRNRDYDDIDD [TTYH2_Y424_T419I] it is inactive: 0.283.
For the molecule HAVYIYDICHV [TWNK_Y508_V507I], the enrichment score is inactive: 3.03.
The same measure, in the same setting: the figure for HLVSEYQQFQD [TUBB3_Y422_D417H_YF] is inactive: 0.728; for REIHDYIKHLG [UNC13C_Y308_D304E] it is inactive: 1.14; for YEDTLYTVLHR [UNC13D_Y61_A59T] it is inactive: 1.
Consider TQRPHYKGGGG [TYROBP_Y112_Y111H], for which the enrichment score is inactive: 1.26.
Same read-out and setting: next, FKDVTYLTEEK [UBE3A_Y127]: inactive: 0.994.

Another assay concerns the target SHP2 N-SH2 domain T52S. The description is as above. Conditions: peptide library: pTyr-Var.
As for HLVSEYQQYQD [TUBB3_Y422_D417H], the enrichment score is inactive: 0.857.
As for SGPRRYTIATL [TTR_Y125_A129T], the enrichment score is inactive: 0.4.
Still for that read-out and setting: next, TNLVPYPCIHF [TUBA1A_Y262_R264C]: inactive: 1.11; EYGFRYELVQY [UGGT2_Y1289]: inactive: 0.816; DLNATYRTIQG [U2SURP_Y634]: inactive: 0.746.
ADLTEYLSTHF [UQCRC1_Y219_YF]: the enrichment score is inactive: 0.866.
For EKGEEYGGGGG [TUBA1A_Y451_E447K], the enrichment score is inactive: 0.496.
As for GRDQPYSGAGD [TYRO3_Y828], the enrichment score was inactive: 0.43.
For the molecule DDDPEYRKFLE [UPF3B_Y160], the enrichment score was inactive: 0.507.
Regarding KMMGRYEMYAR [UPB1_Y362_T359M], the enrichment score is inactive: 1.08.
TVLWRYTGTRP [UGT1A1_Y337]: the enrichment score was inactive: 0.327.
As to QGIYGYHHHMQ [UFSP2_Y287_Y290H], the enrichment score was inactive: 2.43.
On to IRNRDYDDIDD [TTYH2_Y424_T419I], for which the enrichment score is inactive: 0.363.
HAVYIYDICHV [TWNK_Y508_V507I]: the enrichment score is active: 3.74.
For the molecule HLVSEYQQFQD [TUBB3_Y422_D417H_YF], the enrichment score is inactive: 0.949.
Take REIHDYIKHLG [UNC13C_Y308_D304E]: the enrichment score is inactive: 1.41.
In the case of YEDTLYTVLHR [UNC13D_Y61_A59T], the enrichment score is inactive: 0.992.
In the case of TQRPHYKGGGG [TYROBP_Y112_Y111H], the enrichment score was inactive: 1.26.
Turning to FKDVTYLTEEK [UBE3A_Y127], the enrichment score is inactive: 1.

A further assay deals with SHP2 N-SH2 domain wild-type. The assay is described as above. The following applies: peptide library: pTyr-Var.
Take HLVSEYQQYQD [TUBB3_Y422_D417H]: the enrichment score was inactive: 1.08.
As to SGPRRYTIATL [TTR_Y125_A129T], the enrichment score is inactive: 0.521.
TNLVPYPCIHF [TUBA1A_Y262_R264C]: the enrichment score was inactive: 1.59.
Still for that read-out and setting: the figure for EYGFRYELVQY [UGGT2_Y1289] is inactive: 1.06.
Take DLNATYRTIQG [U2SURP_Y634]: the enrichment score was inactive: 0.728.
With ADLTEYLSTHF [UQCRC1_Y219_YF], the enrichment score was inactive: 0.978.
Regarding EKGEEYGGGGG [TUBA1A_Y451_E447K], the enrichment score was inactive: 0.462.
As to GRDQPYSGAGD [TYRO3_Y828], the enrichment score was inactive: 0.602.
Turning to DDDPEYRKFLE [UPF3B_Y160], the enrichment score is inactive: 0.373.
On to KMMGRYEMYAR [UPB1_Y362_T359M], for which the enrichment score was inactive: 0.899.
On the same count and under the same terms, the figure for TVLWRYTGTRP [UGT1A1_Y337] is inactive: 0.322; for QGIYGYHHHMQ [UFSP2_Y287_Y290H] it is inactive: 2.42; for IRNRDYDDIDD [TTYH2_Y424_T419I] it is inactive: 0.366.
As to HAVYIYDICHV [TWNK_Y508_V507I], the enrichment score is active: 3.88.
HLVSEYQQFQD [TUBB3_Y422_D417H_YF]: the enrichment score is inactive: 0.724.
The same measure, in the same setting: next, REIHDYIKHLG [UNC13C_Y308_D304E]: inactive: 1.23; YEDTLYTVLHR [UNC13D_Y61_A59T]: inactive: 1.08; TQRPHYKGGGG [TYROBP_Y112_Y111H]: inactive: 1.23.
FKDVTYLTEEK [UBE3A_Y127]: the enrichment score was inactive: 0.976.
